These results are taken from patent US20260008835A1 (SHANGHAI REGENELEAD THERAPIES, published 2026).

T1: Human VEGF-A protein (human, UniProt P15692-4 27-191, limits assumed)
T1 sequence (looked up): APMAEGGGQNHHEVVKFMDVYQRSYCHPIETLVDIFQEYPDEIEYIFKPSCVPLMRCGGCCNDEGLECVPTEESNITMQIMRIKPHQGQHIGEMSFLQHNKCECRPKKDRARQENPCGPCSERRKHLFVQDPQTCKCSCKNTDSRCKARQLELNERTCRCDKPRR

B1: PR1126 (R1D2-R2D3-linker-R2D2-R2D3 (F288Y)-Fc) (Fc fusion)
chain: SDTGRPFVEMYSEIPEIIHMTEGRELVIPCRVTSPNITVTLKKFPLDTLIPDGKRIIWDSRKGFIISNATYKEIGLLTCEATVNGHLYKTNYLTHRQTNTIIDVVLSPSHGIELSVGEKLVLNCTARTELNVGIDFNWEYPSSKHQHKKLVNRDLKTQSGSEMKKFLSTLTIDGVTRSDQGLYTCAASSGLMTKKNSTFVRVHEKGGGGSSPFIASVSDQHGVVYITENKNKTVVIPCLGSISNLNVSLCARYPEKRFVPDGNRISWDSKKGFTIPSYMISYAGMVFCEAKINDESYQSIMYIVVVVGYRIYDVVLSPSHGIELSVGEKLVLNCTARTELNVGIDFNWEYPSSKHQHKKLVNRDLKTQSGSEMKKYLSTLTIDGVTRSDQGLYTCAASSGLMTKKNSTFVRVHEK[human IgG1 Fc with changes not printed]
B2: PR1132 (R1D2-R2D3-linker-R2D2-R2D3 (L277R/L289Y)-Fc) (Fc fusion)
chain: SDTGRPFVEMYSEIPEIIHMTEGRELVIPCRVTSPNITVTLKKFPLDTLIPDGKRIIWDSRKGFIISNATYKEIGLLTCEATVNGHLYKTNYLTHRQTNTIIDVVLSPSHGIELSVGEKLVLNCTARTELNVGIDFNWEYPSSKHQHKKLVNRDLKTQSGSEMKKFLSTLTIDGVTRSDQGLYTCAASSGLMTKKNSTFVRVHEKGGGGSSPFIASVSDQHGVVYITENKNKTVVIPCLGSISNLNVSLCARYPEKRFVPDGNRISWDSKKGFTIPSYMISYAGMVFCEAKINDESYQSIMYIVVVVGYRIYDVVLSPSHGIELSVGEKLVLNCTARTELNVGIDFNWEYPSSKHQHKKLVNRDRKTQSGSEMKKFYSTLTIDGVTRSDQGLYTCAASSGLMTKKNSTFVRVHEK[human IgG1 Fc with changes not printed]
B3: PR1124 (R1D2-R2D3-linker-R2D2-R2D3 (S283T)-Fc) (Fc fusion)
chain: SDTGRPFVEMYSEIPEIIHMTEGRELVIPCRVTSPNITVTLKKFPLDTLIPDGKRIIWDSRKGFIISNATYKEIGLLTCEATVNGHLYKTNYLTHRQTNTIIDVVLSPSHGIELSVGEKLVLNCTARTELNVGIDFNWEYPSSKHQHKKLVNRDLKTQSGSEMKKFLSTLTIDGVTRSDQGLYTCAASSGLMTKKNSTFVRVHEKGGGGSSPFIASVSDQHGVVYITENKNKTVVIPCLGSISNLNVSLCARYPEKRFVPDGNRISWDSKKGFTIPSYMISYAGMVFCEAKINDESYQSIMYIVVVVGYRIYDVVLSPSHGIELSVGEKLVLNCTARTELNVGIDFNWEYPSSKHQHKKLVNRDLKTQSGTEMKKFLSTLTIDGVTRSDQGLYTCAASSGLMTKKNSTFVRVHEK[human IgG1 Fc with changes not printed]
B4: PR1116 (R1D2-R2D3-linker-R2D2-R2D3 (R275E)-Fc) (Fc fusion)
chain: SDTGRPFVEMYSEIPEIIHMTEGRELVIPCRVTSPNITVTLKKFPLDTLIPDGKRIIWDSRKGFIISNATYKEIGLLTCEATVNGHLYKTNYLTHRQTNTIIDVVLSPSHGIELSVGEKLVLNCTARTELNVGIDFNWEYPSSKHQHKKLVNRDLKTQSGSEMKKFLSTLTIDGVTRSDQGLYTCAASSGLMTKKNSTFVRVHEKGGGGSSPFIASVSDQHGVVYITENKNKTVVIPCLGSISNLNVSLCARYPEKRFVPDGNRISWDSKKGFTIPSYMISYAGMVFCEAKINDESYQSIMYIVVVVGYRIYDVVLSPSHGIELSVGEKLVLNCTARTELNVGIDFNWEYPSSKHQHKKLVNEDLKTQSGSEMKKFLSTLTIDGVTRSDQGLYTCAASSGLMTKKNSTFVRVHEK[human IgG1 Fc with changes not printed]
B5: PR1128 (R1D2-R2D3-linker-R2D2-R2D3 (L313Y)-Fc) (Fc fusion)
chain: SDTGRPFVEMYSEIPEIIHMTEGRELVIPCRVTSPNITVTLKKFPLDTLIPDGKRIIWDSRKGFIISNATYKEIGLLTCEATVNGHLYKTNYLTHRQTNTIIDVVLSPSHGIELSVGEKLVLNCTARTELNVGIDFNWEYPSSKHQHKKLVNRDLKTQSGSEMKKFLSTLTIDGVTRSDQGLYTCAASSGLMTKKNSTFVRVHEKGGGGSSPFIASVSDQHGVVYITENKNKTVVIPCLGSISNLNVSLCARYPEKRFVPDGNRISWDSKKGFTIPSYMISYAGMVFCEAKINDESYQSIMYIVVVVGYRIYDVVLSPSHGIELSVGEKLVLNCTARTELNVGIDFNWEYPSSKHQHKKLVNRDLKTQSGSEMKKFLSTLTIDGVTRSDQGLYTCAASSGYMTKKNSTFVRVHEK[human IgG1 Fc with changes not printed]
B6: PR1120 (R1D2-R2D3-linker-R2D2-R2D3 (K278D)-Fc) (Fc fusion)
chain: SDTGRPFVEMYSEIPEIIHMTEGRELVIPCRVTSPNITVTLKKFPLDTLIPDGKRIIWDSRKGFIISNATYKEIGLLTCEATVNGHLYKTNYLTHRQTNTIIDVVLSPSHGIELSVGEKLVLNCTARTELNVGIDFNWEYPSSKHQHKKLVNRDLKTQSGSEMKKFLSTLTIDGVTRSDQGLYTCAASSGLMTKKNSTFVRVHEKGGGGSSPFIASVSDQHGVVYITENKNKTVVIPCLGSISNLNVSLCARYPEKRFVPDGNRISWDSKKGFTIPSYMISYAGMVFCEAKINDESYQSIMYIVVVVGYRIYDVVLSPSHGIELSVGEKLVLNCTARTELNVGIDFNWEYPSSKHQHKKLVNRDLDTQSGSEMKKFLSTLTIDGVTRSDQGLYTCAASSGLMTKKNSTFVRVHEK[human IgG1 Fc with changes not printed]
B7: PR1119 (R1D2-R2D3-linker-R2D2-R2D3 (L277R)-Fc) (Fc fusion)
chain: SDTGRPFVEMYSEIPEIIHMTEGRELVIPCRVTSPNITVTLKKFPLDTLIPDGKRIIWDSRKGFIISNATYKEIGLLTCEATVNGHLYKTNYLTHRQTNTIIDVVLSPSHGIELSVGEKLVLNCTARTELNVGIDFNWEYPSSKHQHKKLVNRDLKTQSGSEMKKFLSTLTIDGVTRSDQGLYTCAASSGLMTKKNSTFVRVHEKGGGGSSPFIASVSDQHGVVYITENKNKTVVIPCLGSISNLNVSLCARYPEKRFVPDGNRISWDSKKGFTIPSYMISYAGMVFCEAKINDESYQSIMYIVVVVGYRIYDVVLSPSHGIELSVGEKLVLNCTARTELNVGIDFNWEYPSSKHQHKKLVNRDRKTQSGSEMKKFLSTLTIDGVTRSDQGLYTCAASSGLMTKKNSTFVRVHEK[human IgG1 Fc with changes not printed]
B8: PR1123 (R1D2-R2D3-linker-R2D2-R2D3 (Q280E)-Fc) (Fc fusion)
chain: SDTGRPFVEMYSEIPEIIHMTEGRELVIPCRVTSPNITVTLKKFPLDTLIPDGKRIIWDSRKGFIISNATYKEIGLLTCEATVNGHLYKTNYLTHRQTNTIIDVVLSPSHGIELSVGEKLVLNCTARTELNVGIDFNWEYPSSKHQHKKLVNRDLKTQSGSEMKKFLSTLTIDGVTRSDQGLYTCAASSGLMTKKNSTFVRVHEKGGGGSSPFIASVSDQHGVVYITENKNKTVVIPCLGSISNLNVSLCARYPEKRFVPDGNRISWDSKKGFTIPSYMISYAGMVFCEAKINDESYQSIMYIVVVVGYRIYDVVLSPSHGIELSVGEKLVLNCTARTELNVGIDFNWEYPSSKHQHKKLVNRDLKTESGSEMKKFLSTLTIDGVTRSDQGLYTCAASSGLMTKKNSTFVRVHEK[human IgG1 Fc with changes not printed]
B9: PR1094 (R1D2-R2D3-linker-R2D2 (C162V)-R2D3-Fc) (Fc fusion)
chain: SDTGRPFVEMYSEIPEIIHMTEGRELVIPCRVTSPNITVTLKKFPLDTLIPDGKRIIWDSRKGFIISNATYKEIGLLTCEATVNGHLYKTNYLTHRQTNTIIDVVLSPSHGIELSVGEKLVLNCTARTELNVGIDFNWEYPSSKHQHKKLVNRDLKTQSGSEMKKFLSTLTIDGVTRSDQGLYTCAASSGLMTKKNSTFVRVHEKGGGGSSPFIASVSDQHGVVYITENKNKTVVIPCLGSISNLNVSLVARYPEKRFVPDGNRISWDSKKGFTIPSYMISYAGMVFCEAKINDESYQSIMYIVVVVGYRIYDVVLSPSHGIELSVGEKLVLNCTARTELNVGIDFNWEYPSSKHQHKKLVNRDLKTQSGSEMKKFLSTLTIDGVTRSDQGLYTCAASSGLMTKKNSTFVRVHEK[human IgG1 Fc with changes not printed]
B10: PR1109 (R1D2-R2D3-linker-R2D2 (V219I)-R2D3-Fc) (Fc fusion)
chain: SDTGRPFVEMYSEIPEIIHMTEGRELVIPCRVTSPNITVTLKKFPLDTLIPDGKRIIWDSRKGFIISNATYKEIGLLTCEATVNGHLYKTNYLTHRQTNTIIDVVLSPSHGIELSVGEKLVLNCTARTELNVGIDFNWEYPSSKHQHKKLVNRDLKTQSGSEMKKFLSTLTIDGVTRSDQGLYTCAASSGLMTKKNSTFVRVHEKGGGGSSPFIASVSDQHGVVYITENKNKTVVIPCLGSISNLNVSLCARYPEKRFVPDGNRISWDSKKGFTIPSYMISYAGMVFCEAKINDESYQSIMYIVVVIGYRIYDVVLSPSHGIELSVGEKLVLNCTARTELNVGIDFNWEYPSSKHQHKKLVNRDLKTQSGSEMKKFLSTLTIDGVTRSDQGLYTCAASSGLMTKKNSTFVRVHEK[human IgG1 Fc with changes not printed]

In this test the target is T1, Human VEGF-A protein. The experiment in a line: cell-based or functional assay.
Turning to B1, the “VEGF-A IC50; VEGF-A-induced NFAT-RE-luc2P/KDR HEK293 reporter gene expression” value was 0.7 nM.

As to B2, the “VEGF-A IC50; VEGF-A-induced NFAT-RE-luc2P/KDR HEK293 reporter gene expression” value is 0.42 nM. As for B3, the figure is 0.29 nM; as for B4, 0.54 nM; as for B5, 0.42 nM.

Regarding B6, the “VEGF-A IC50; VEGF-A-induced NFAT-RE-luc2P/KDR HEK293 reporter gene expression” value stood at 0.38 nM. Consider B7, for which the “VEGF-A IC50; VEGF-A-induced NFAT-RE-luc2P/KDR HEK293 reporter gene expression” value was 0.14 nM. Regarding B8, the “VEGF-A IC50; VEGF-A-induced NFAT-RE-luc2P/KDR HEK293 reporter gene expression” value worked out at 0.21 nM.

Regarding B9, the “VEGF-A IC50; VEGF-A-induced NFAT-RE-luc2P/KDR HEK293 reporter gene expression” value was 0.34 nM. On to B10, for which the “VEGF-A IC50; VEGF-A-induced NFAT-RE-luc2P/KDR HEK293 reporter gene expression” value was 0.18 nM.
